Results from the antibiotic and cytotoxicity screens of Wong et al. (2023).
The other results are listed elsewhere or left out.

Columns and labels:
[1] = system: HSkMC (human skeletal muscle cells); experiment: cytotoxicity call (relative viability < 0.9); conditions: 10 µM
[2] = system: HepG2; experiment: cytotoxicity call (relative viability < 0.9); conditions: 10 µM
[3] = system: S. aureus RN4220; experiment: growth inhibition call (relative growth <= 0.2); conditions: 50 µM

SMILES | cytotoxicity call [1] | cytotoxicity call [2] | growth inhibition call [3]
C[C@H]1CCCCO[C@H](CN(C)S(=O)(=O)c2cn(C)cn2)[C@@H](C)CN([C@@H](C)CO)C(=O)c2cc(NS(=O)(=O)c3cn(C)cn3)ccc2O1 | inactive | inactive | inactive
C[C@H]1CCCCO[C@H](CN(C)C(=O)CCC(F)(F)F)[C@@H](C)CN([C@@H](C)CO)C(=O)c2cc(NC(=O)Nc3ccccc3)ccc2O1 | inactive | inactive | inactive
COc1ccc(S(=O)(=O)Nc2ccc3c(c2)C(=O)N([C@H](C)CO)C[C@H](C)[C@H](CN(C)C(=O)Nc2ccccc2)OCCCC[C@@H](C)O3)cc1 | inactive | inactive | inactive
C[C@@H]1CN([C@H](C)CO)C(=O)c2cc(NC(=O)CCN3CCOCC3)ccc2O[C@@H]1CN(C)C(=O)Nc1ccc(F)cc1 | inactive | inactive | inactive
CCS(=O)(=O)NCC[C@H]1CC[C@H](NC(=O)C2CC2)[C@H](CO)O1 | inactive | inactive | inactive
CC(C)NC(=O)Nc1ccc2c(c1)CC(=O)N([C@@H](C)CO)C[C@@H](C)[C@@H](CN(C)Cc1ccc3c(c1)OCO3)O2 | inactive | inactive | inactive
Cc1csc2sc(COC(=O)Nc3ccccc3)c(C)c12 | inactive | inactive | inactive
C[C@@H]1CCCCO[C@H](CN(C)C(=O)NC2CCCCC2)[C@H](C)CN([C@@H](C)CO)C(=O)c2cc(NC(=O)Nc3ccccc3)ccc2O1 | inactive | inactive | inactive
CC(CCc1ccc(O)cc1)NCCc1ccc(O)c(O)c1.Cl (centres undefined) | inactive | inactive | inactive
COCC(=O)N[C@@H]1C=C[C@H](CC(=O)N2CCCCC2)O[C@@H]1CO | inactive | inactive | inactive
CCOC(=O)c1cc2c(c(-c3cccc(Br)c3)n1)[C@@H](CCO[Si](C)(C)C(C)(C)C)N([S@](=O)C(C)(C)C)C2 | inactive | inactive | inactive
C[C@H](CO)N1C[C@H](C)[C@H](CN(C)CC2CCCCC2)Oc2c(NC(=O)CCCCCC(=O)Nc3ccccc3N)cccc2C1=O | inactive | inactive | inactive
C[C@@H]1CCCCO[C@@H](CN(C)C(=O)c2ccccc2)[C@@H](C)CN([C@H](C)CO)C(=O)c2cc(NC(=O)C3CCCCC3)ccc2O1 | inactive | inactive | inactive
NC[C@H]1CN(Cc2ccc(F)cc2)CCO1 | inactive | inactive | inactive
COc1ccc(S(=O)(=O)Nc2cccc3c2O[C@@H](CN(C)Cc2ccc(Oc4ccccc4)cc2)[C@@H](C)CN([C@@H](C)CO)C3=O)cc1 | inactive | inactive | inactive
C[C@@H]1CN([C@H](C)CO)C(=O)c2cc(NC(=O)Cn3cnnn3)ccc2O[C@H]1CN(C)Cc1ccc(Oc2ccccc2)cc1 | inactive | inactive | inactive
COc1ccc(C(=O)Nc2cccc(CN3C(=O)[C@]4(O[C@H](CC(=O)N(CCO)Cc5ccccc5)[C@@H]([Si](C)(C)c5ccc(OC)cc5)[C@@H]4C)c4ccccc43)c2)cc1 | inactive | active | inactive
O=C(CN1CCOCC1)NCC[C@@H]1CC[C@@H](NC(=O)c2ccc3c(c2)OCO3)[C@@H](CO)O1 | inactive | inactive | inactive
C[C@@H]1CN([C@H](C)CO)C(=O)c2cccc(NC(=O)C3CCCCC3)c2O[C@@H]1CN(C)C(=O)Nc1cccc2ccccc12 | inactive | inactive | inactive
Cn1cnc(CCNC(=O)C[C@H]2CC[C@@H]3[C@H](COC[C@@H](O)CN3C(=O)Nc3ccc(C(F)(F)F)cc3)O2)c1 | inactive | inactive | inactive
COc1ccc(NC(=O)[C@@H]2[C@H](c3ccc(C)cc3)CC(=O)N2C(=O)OCc2ccccc2)c2ncccc12 | inactive | inactive | inactive
CCOC[C@@H](O)CN | inactive | inactive | inactive
COC(=O)C[C@H]1CC[C@H]2[C@@H](COc3ccc(NS(=O)(=O)c4ccccc4Cl)cc3C(=O)N2C)O1 | inactive | inactive | inactive
Cc1ccc(S(=O)(=O)Nc2cccc3c2O[C@@H](CN(C)CC2CC2)[C@H](C)CN([C@@H](C)CO)C3=O)cc1 | inactive | inactive | inactive
C[C@@H]1CN([C@@H](C)CO)C(=O)Cc2cc(NC(=O)CCN3CCOCC3)ccc2O[C@@H]1CN(C)Cc1ccc(C(=O)O)cc1 | inactive | inactive | inactive
C[C@@H]1CN([C@@H](C)CO)C(=O)c2cc(NC(=O)c3ccccc3)ccc2O[C@@H](C)CCCCO[C@H]1CN(C)Cc1ccc(C(F)(F)F)cc1 | inactive | active | inactive
CC(C)(C)NC(=O)N1CCC(CN)CC1 | inactive | inactive | inactive
C[C@@H]1CN([C@H](C)CO)C(=O)c2cccc(NC(=O)C3CCOCC3)c2O[C@@H]1CN(C)Cc1ccccc1 | inactive | inactive | inactive
